Screen size: about 310,000 compounds; about 2,200 (0.71%) showed an effect of 50% or more. The effect is printed as a negative number. Some of the results follow.
Each compound was assayed against human ether-à-go-go-related gene (hERG) potassium channel (human, UniProt Q12809) (assay: primary screen, population patch clamp on CHO cells stably expressing hERG).
Sequence of human ether-à-go-go-related gene (hERG) potassium channel (Q12809 whole entry, looked up): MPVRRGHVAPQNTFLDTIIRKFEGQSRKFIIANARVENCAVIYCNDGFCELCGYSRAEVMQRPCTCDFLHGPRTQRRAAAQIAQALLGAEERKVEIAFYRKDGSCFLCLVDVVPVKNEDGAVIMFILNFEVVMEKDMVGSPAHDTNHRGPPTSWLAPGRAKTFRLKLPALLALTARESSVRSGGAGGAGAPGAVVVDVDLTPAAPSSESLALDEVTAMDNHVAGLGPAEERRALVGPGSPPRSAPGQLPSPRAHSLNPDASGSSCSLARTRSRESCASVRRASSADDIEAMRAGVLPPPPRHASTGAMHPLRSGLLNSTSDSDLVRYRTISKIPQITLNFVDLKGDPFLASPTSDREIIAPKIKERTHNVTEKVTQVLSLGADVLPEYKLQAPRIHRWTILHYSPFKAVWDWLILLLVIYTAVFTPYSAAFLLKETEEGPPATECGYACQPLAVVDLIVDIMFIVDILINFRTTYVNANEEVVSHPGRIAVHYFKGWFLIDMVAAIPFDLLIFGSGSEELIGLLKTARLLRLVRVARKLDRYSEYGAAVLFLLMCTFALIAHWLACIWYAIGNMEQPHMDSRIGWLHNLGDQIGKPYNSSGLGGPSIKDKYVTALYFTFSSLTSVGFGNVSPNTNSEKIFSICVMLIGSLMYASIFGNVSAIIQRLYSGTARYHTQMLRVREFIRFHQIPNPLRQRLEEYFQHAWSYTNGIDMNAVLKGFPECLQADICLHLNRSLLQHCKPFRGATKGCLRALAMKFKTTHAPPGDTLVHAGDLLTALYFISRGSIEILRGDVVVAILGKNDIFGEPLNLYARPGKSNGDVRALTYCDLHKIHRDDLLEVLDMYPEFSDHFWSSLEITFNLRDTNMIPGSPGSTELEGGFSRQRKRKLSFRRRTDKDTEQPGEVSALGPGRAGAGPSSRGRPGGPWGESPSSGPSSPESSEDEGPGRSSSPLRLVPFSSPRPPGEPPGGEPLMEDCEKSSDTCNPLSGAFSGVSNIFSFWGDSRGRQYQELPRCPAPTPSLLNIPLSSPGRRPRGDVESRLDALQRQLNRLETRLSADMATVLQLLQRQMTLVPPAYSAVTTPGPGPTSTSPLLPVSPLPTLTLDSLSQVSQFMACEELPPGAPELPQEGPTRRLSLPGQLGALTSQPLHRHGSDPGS

Row | SMILES | hERG current change (%, negative = inhibition) at 1uM [%]
1 | CCN(CC)S(=O)(=O)c1ccc(C(=O)N2CCN(C(=O)c3ccco3)CC2)cc1 | -0.0165
2 | Cc1ccc(-n2nnnc2SCC(=O)c2c(N)n(C3CC3)c(=O)[nH]c2=O)cc1 | 7.45
3 | CCOc1ccc(NC(=O)CN2C(=O)S/C(=C/c3cccn3C)C2=O)cc1 | 15.1
4 | CN(c1ccc(C(=O)NCCSC(C)(C)C)cc1)S(=O)(=O)c1ccccc1 | 3.6
5 | Cc1ccc(S(=O)(=O)CCC(=O)OCC(=O)N2CCc3ccccc32)cc1 | 4.71
6 | CCNC(=O)/C(=C/c1cccc([N+](=O)[O-])c1)NC(=O)c1ccc(C)cc1 | -17.3
7 | COc1cc(C2C(C(=O)c3ccc(C)o3)=C(O)C(=O)N2CCc2ccccc2)ccc1O (centres unmarked) | 4.12
8 | Cc1ccnc(NC(=O)C2CC(=O)N(Cc3ccccc3)C2)c1 (centres unmarked) | 9.18
9 | CCn1c(SCC(=O)N/N=C/c2cc(OC)c(OC)c(OC)c2)nc2ccccc21 | 13.8
10 | COc1ccccc1NC(=O)NC1(C(=O)N2CCOCC2)CCCCC1 | 14.5
11 | COc1cccc(NC(=O)CN(C)C(=O)Cc2n[nH]c(=O)c3ccccc23)c1 | 7.58
12 | O=C1c2ccccc2C(O)(Cc2ccccc2)N1C1CCCCC1 (centres unmarked) | 12
13 | CCOC(=O)c1cn(-c2c(C)n(C)n(-c3ccccc3)c2=O)c2c(F)c(F)c(F)cc2c1=O | 8.38
14 | CCOc1ccccc1CN1CCN(C/C=C/c2ccc(OC)cc2)CC1CCO (centres unmarked) | -13.6
15 | Fc1cccc(NCCc2c[nH]c3ccccc23)n1 | 16.5
16 | CCCn1c(Oc2ccccc2)nc2c1c(=O)n(C)c(=O)n2C | 10.7
17 | COc1cc2c3nnc(-c4ccc(F)cc4)c-3cn(Cc3cccc(F)c3)c2cc1OC | 19.1
18 | Cc1ccc(S(=O)(=O)CCc2nnc(NC(=O)COc3cccc(C)c3)s2)cc1 | 11.3
19 | CCCCN(C)CCCNC(=O)Cn1c(=O)sc2ccccc21 | 1.42
20 | CCOC(=O)c1ccccc1NCN1C(=O)CSC1=O | 15.9
21 | O=S(=O)(NCCCc1ccccc1)c1ccc(Cl)cc1 | -2.28
22 | CCCn1c(SCC(=O)Nc2ccc(Cl)cn2)nnc1C1CC1 | 16.9

Row | SMILES | hERG current change (%, negative = inhibition) at 1uM [%]
23 | CCOC(=O)c1c(NC(=O)COC(=O)CNC(=O)c2ccco2)sc(C(C)=O)c1C | 10.2
24 | CCC(C)NS(=O)(=O)c1ccc(OCC(=O)NCC2CCCO2)cc1 (centres unmarked) | 0.206
25 | O=c1oc(/C=C/c2ccccc2)nc2sc3c(c12)CCC3 | 7.83
26 | CCN1CCN(c2nc(Nc3cccc(F)c3)nc(N)c2[N+](=O)[O-])CC1 | -16.5
27 | CCCN1C(=O)c2cccc3c(N4CCCCC4)ccc(c23)C1=O | 2.89
28 | O=C(COc1ccccc1)NNC(=O)c1cccs1 | 22.5
29 | COc1ccc(N2C(=O)CC(N3CCCC4CCCCC43)C2=O)cc1 (centres unmarked) | 9.52
30 | COC(=O)C1=CN(Cc2ccc(OC)c(OC)c2)C=C(C(=O)OC)C1c1cccc(O)c1 | 8.46
31 | CN(CCOc1ccccc1)C(=O)CCc1nc2sc3c(c2c(=O)[nH]1)CCCC3 | 18.1
32 | O=C(NC1=NCCS1)C1CC(=O)N(c2ccc(F)cc2)C1 (centres unmarked) | 2.82
33 | Cc1ccc(-n2nc3c(c2NC(=O)c2ccc4c(c2)OCO4)CS(=O)(=O)C3)cc1 | 19.4
34 | COc1ccc(NC(=O)CSc2ncnc3c2cnn3Cc2ccccc2)cc1OC | 20
35 | COc1ccccc1Cn1c(CO)nc2ccccc21 | 11.3
36 | COc1ccc(C(C(=O)NC(C)(C)C)N(C(=O)CNC(=O)c2cccs2)c2ccc(C(C)C)cc2)cc1OC (centres unmarked) | 11.2
37 | O=C(/C=C/c1ccc(F)cc1)NC(=S)Nc1ccccc1C(=O)NC1CCCCC1 | 11
38 | Cc1ccc(Cl)cc1N1CCN(C(=O)CCS(=O)(=O)c2ccc3c(c2)NC(=O)CO3)CC1 | 13.8
39 | CCOc1cc(CN2CCCC(N3CCc4ccccc4C3)C2)ccc1O (centres unmarked) | 8.74
40 | Cc1ccc(-c2c3c(=O)n(C)c(=O)n(C)c3cn2-c2ccccc2O)cc1 | 4.06
41 | O=c1c2c3nc4ccccc4nc3n(CC3CCCO3)c2ncn1CCc1ccccc1 (centres unmarked) | 7.54
42 | Cn1ncc(Cl)c1C(=O)N1CCN(S(=O)(=O)c2ccc(Cl)s2)CC1 | -6.93
43 | Cl.O=C(CN1CCN(C2CCCCC2)CC1)Nc1ccccc1N1CCCCC1 | -44.2
44 | CNC(=O)CCCCC(=O)N/N=C/c1ccc(Cl)cc1Cl | 11.4

Row | SMILES | hERG current change (%, negative = inhibition) at 1uM [%]
45 | COC(=O)c1[nH]c2ccc(C)cc2c1NC(=O)CN1CCc2cc(OC)c(OC)cc2C1 | 11.3
46 | Cc1ccc(OCC(=O)OC2CCCN(C)C2)cc1.Cl (centres unmarked) | 13.9
47 | CCOC(=O)[C@H]1[C@H]2COc3ccc(C)cc3[C@@H]2N2C(=O)CN(Cc3ccc(F)cc3)C(=O)[C@@]12C | 8.22
48 | CC(=O)N1CCN(C23CC4CC(CC(C4)C2)C3)CC1 | 11.9
49 | O=C(CCN1CCN(c2ccc(Cl)cc2)CC1)Nc1nccs1 | 8.13
50 | COc1ccccc1C(=O)NC(=O)CSc1nnc(C)s1 | 14.5
51 | CC(=O)N(C(C)=O)n1c(/C=C/c2ccc([N+](=O)[O-])cc2)nc2ccccc2c1=O | 3.69
52 | CCOc1ccc2nc(N3CCC(C(=O)N4CCC5(CC4)OCCO5)CC3)sc2c1 | 6.77
53 | CC1(C)Oc2ccc3ccc(=O)oc3c2/C(=C/Nc2ccc(O)cc2)C1=O | 17.9
54 | CCCCOc1ccc(-c2nnn(CCC(=O)N3CCOCC3)n2)cc1 | -3.44
55 | CCN(CC)C(=O)N1c2ccccc2Sc2ccccc21 | 6.83
56 | N#CC(c1ccccc1F)(c1ncc(C(F)(F)F)cc1Cl)N1CCOCC1 (centres unmarked) | -4.1
57 | COC(=O)c1c(NC(=O)C(=O)N2CCOCC2)sc2c1CCC2 | 23.2
58 | COc1ccc(NC(=O)c2csc(Cc3ccc(Cl)cc3)n2)cc1 | 12.8
59 | CCC1CCCCN1C(=O)CSc1nc2c(c(=O)n(C)c(=O)n2C)n1C (centres unmarked) | 3.72
60 | NNC(=O)c1ccc(COc2ccc3c(c2)CCC3)cc1 | 5.57
61 | CC(C)n1c(NCc2cccs2)nc2ccccc21 | -1.27
62 | CC(=Nc1ccccc1C)C1=C(O)CSC1=O | 4.34
63 | Cc1cccc(OC(C)C(=O)N/N=C\c2ccncc2)c1 (centres unmarked) | 15.5
64 | CCC(C)NC(=O)CCc1c(C)nc2nc(-c3cc(OC)cc(OC)c3)nn2c1C (centres unmarked) | -4.72
65 | Cc1cccc(C)c1NC(=O)NN1C(C)CCCC1C (centres unmarked) | 12
66 | COc1ccc(S(=O)(=O)N2CCCCCC2)cc1C(=O)N(C)Cc1cccc(OC)c1OC | 0.302

Row | SMILES | hERG current change (%, negative = inhibition) at 1uM [%]
67 | Cc1cc(C)cc(NC(=O)COc2coc(CN3CCc4ccccc4C3)cc2=O)c1 | 5.39
68 | CCOc1ccc(/C=C2/Sc3ccc(C(=O)N4CCOCC4)cc3N(C)C2=O)cc1OC | 10.9
69 | NC(=O)c1ccc(Oc2ccc(-c3nnco3)cc2)c([N+](=O)[O-])c1 | 13.4
70 | CCN1CCN(C(=O)c2cc(=O)c3cc(C)ccc3o2)CC1 | 6.16
71 | O=C(Nc1nc(-c2cccc([N+](=O)[O-])c2)cs1)C(c1ccccc1)c1ccccc1 | 15.3
72 | Cc1ccccc1NC(=O)Nc1ccc2c(c1)OCO2 | 3.69
73 | Nc1ccc2nn(-c3ccc(Cl)cc3)nc2c1 | 0.522
74 | C/C(=N\NC(=O)c1cccc(S(=O)(=O)N2CCOCC2)c1)c1ccc(OCC(=O)N(C)C)cc1 | 19.3
75 | COc1ccc(/C=N/NS(=O)(=O)c2ccc(C)cc2)cc1OC(=O)c1ccccc1 | 5.96
76 | COc1cccc(C(=O)NN2CC(O)=C(c3nc4ccccc4s3)C2=N)c1 | 20.9
77 | COc1ccc2nc(N(Cc3ccccc3)C(=O)CCNC(C)=O)sc2c1 | 7.46
78 | COc1ccccc1Nc1nc2c(C)cccc2cc1C#N | 0.996
79 | Cc1ccc(S(=O)(=O)c2cc3c(=O)n4cccc(C)c4nc3n(CC3CCCO3)c2=N)cc1C (centres unmarked) | 12.9
80 | CCOc1ccc(NC(=O)CN2C(=O)NC(C)(c3ccc(OC(F)F)cc3)C2=O)cc1 (centres unmarked) | 6.18
81 | CCOC(=O)Nc1ccc2c(COC(=O)CNS(=O)(=O)c3cccc(Br)c3)cc(=O)oc2c1 | 12.8
82 | CCCn1c(CCc2ccccc2)n[nH]c1=S | 4.75
83 | CCCN(CC(=O)Nc1ccccc1OC)C(=O)CCCN1C(=O)c2ccccc2C1=O | 1.67
84 | O=C(Cn1cnc2sc(-c3ccccc3)cc2c1=O)NCc1ccccc1 | 9.67
85 | CCOC(=O)c1cc(C(=O)Nc2sc3c(c2C#N)CCCC3)nn1C | 15.1
86 | C=CCn1c(=S)[nH]c2cc(C(=O)Nc3ccc(F)cc3)ccc2c1=O | 7.97

From publication PMC4336329 (PLoS ONE, 2015)
